The supplement of paper PMC12632987
The full ranking holds about 1,800 sequences; the median of “median log2 fold change of GCK-ALFA target abundance (FLAG IP / Myc IP barcode read proportion)” is about 0.14, and the lowest 2% start at about -0.84. Some of the results follow.

T1: TRAF2, Q12933
T1 chain: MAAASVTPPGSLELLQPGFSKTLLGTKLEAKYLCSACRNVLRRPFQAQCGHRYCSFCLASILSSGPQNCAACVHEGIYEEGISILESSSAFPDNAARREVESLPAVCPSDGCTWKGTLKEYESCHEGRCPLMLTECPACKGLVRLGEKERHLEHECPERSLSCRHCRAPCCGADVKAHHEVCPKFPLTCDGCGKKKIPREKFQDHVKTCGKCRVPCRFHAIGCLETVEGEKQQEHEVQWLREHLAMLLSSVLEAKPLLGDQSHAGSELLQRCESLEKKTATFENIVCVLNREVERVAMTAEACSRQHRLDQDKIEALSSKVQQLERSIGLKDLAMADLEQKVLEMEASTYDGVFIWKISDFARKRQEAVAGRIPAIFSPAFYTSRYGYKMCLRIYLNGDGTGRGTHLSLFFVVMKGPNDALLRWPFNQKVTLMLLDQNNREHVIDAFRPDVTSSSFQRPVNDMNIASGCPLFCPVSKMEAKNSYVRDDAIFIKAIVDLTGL

B1: traf2_out_6_156_2420 (protein)
chain: KVEEIKKKTLEEIKELIKKLSEASEEKKISYINKIAGTVYRALQQLKALGASVEEIEAFVKEVLEFAKKEAEKAGLPEDVINLLLGSIQAVGDVAIAEAK
B2: traf2_out_13_95_1073 (protein)
chain: SLELAKKIMEIADEAEERIEKLLKEAQKELADNPEAVAVLKEALELARKKGVSAAIHLLREAAKANPENAAKFKALIEEIEAIRREAGREVAKLIKEEEE
B3: traf2_out_6_156_2458 (protein)
chain: SIEEIEEETLERLEELLEKLAEASEEEKIKYINEIAGTVYRGLQRLREAGASLEEIEAFVERVLEFVEEKAEELGIPEDTKNLLLASLRAVGDAAIESAK
B4: traf2_out_11_155_723 (protein)
chain: EKKREAQNKIVDKSLEIGDKLLAEVEKIIKEIAKEDPEVAKELKKVVEKYLKYSNTSAARAAIDLLKEAGYEEEAAKLEKALEEAQKEKSEFIQKVEEEL
B5: traf2_out_17_162_1560 (protein)
chain: SPIEEKWKELLEELERLREEVERLEEELKNIENMSLEELRDLLVRASEVRRRALELAEEAEELKEEIGEEKAQELIDEAERIAERAQRIANKLYKAILEK
B6: traf2_out_18_3_1928 (protein)
chain: SEEERKKVSDELDKVVDEVEEKARKAMEELEEKKPEVKERVEKLRELLESGAGPFGILEELARLAKEAGLEELAKELEAFLEKKRKEAGKLVEEYEKLIK
B7: traf2_out_20_8_2270 (protein)
chain: MSMEEKLARAADLILEAKDLARAVIKEVLADERAPEIAARAAAAISVSVGADDTDSDILARIRDRATEAIDALAAETGDPRLAEARDRVSAELAARAAAA
B8: traf2_out_20_38_2039 (protein)
chain: SEEEEEERRLEEAVEVANEALDKYEEKIAELKAKGKSVEEIAEWAKEKVKEILGKAGLEEEAKILVEQIDTVKNSPDAERLIARILARAEALVWQKKQNE

Target: T1, TRAF2, Q12933
Assay: median log2 fold change of GCK-ALFA target abundance (FLAG IP / Myc IP barcode read proportion) (log2 ratio); each designed protein is fused to an ALFA-tag nanobody in HEK293 cells to bring the named protein to FLAG-tagged glucokinase (GCK); Myc marks an untargeted standard; higher = target protein stabilised (more abundant)
Details: target protein: 3xFLAG-MCP-GCK-ALFA reporter; HEK293 landing pad (RPLP)
Method in brief: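 The readout is target abundance, the per-binder median log2 ratio of FLAG to Myc barcode read proportions. It came from HEK293 landing-pad cells carrying a recombined ALFA-nanobody-fused binder library, induced with 2 μg mL^−1 doxycycline and transfected with a plasmid for a FLAG-tagged target and a Myc-tagged standard. After 48 h, lysates were immunoprecipitated with anti-FLAG and anti-Myc, and circular RNA barcodes were reverse transcribed, amplified and sequenced. Each barcode needed a proportion of at least 10^−7 in both replicates and each binder at least 3 barcodes per replicate, a pseudocount of 10^−6 was added, and the replicates were pooled.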

Binder | median log2 fold change
B1 | 0.0642
B2 | -0.447
B3 | 0.167
B4 | 0.14
B5 | -0.341
B6 | 0.202
B7 | 0.271
B8 | -0.778
